This is an account of results in PubChem BioAssay AID1159583 (ICCB-Longwood Screening Facility, Harvard Medical School, 2016).

The other results are listed elsewhere or left out. These are further read-outs of the screen, such as a control signal, another cell line or another target. No call is given for them. Most of these compounds were active or inconclusive in the main read-out, so they are no random draw.

This assay is described as follows: hypoxia reporter signal reduction in M. tuberculosis – fluorescence, absorbance growth readout, primary screen (AID 1159583). Conditions: M. tuberculosis hypoxia-regulated fluorescent reporter, measured here: M. tuberculosis growth (absorbance), stronger effect = higher value, concentration not given here.
In the case of `O=C(/C=C(\c1ccc(Cl)cc1)n1cncn1)c1ccc(Cl)cc1`, the growth inhibition was determined as 13.1%. With `O=C1CCCN1CCCN=c1c([N+](=O)[O-])nn(-c2ccc(Cl)cc2)n1O`, the growth inhibition was found to be 20.8%. As to `O=C(NCc1ccncc1)c1cccc(S(=O)(=O)N2CCc3ccccc32)c1`, the growth inhibition was determined as 56%.

With `O=C(CSc1nnc(-c2ccc(F)cc2)o1)N1CCCCC1`, the growth inhibition amounted to 30.1%.

Consider `Oc1ccccc1N=Cc1sc2ccccc2c1Cl`, for which the growth inhibition came to 24.3%. As for `CN(C)c1ccc2nc3ccc(=[N+](C)C)cc-3sc2c1`, the growth inhibition is 2.3%. As for `Fc1ccc(CSc2nnc(-c3ccccn3)o2)cc1`, the growth inhibition was 21.9%. The value for `CCOC(=O)C1=C(COC(=O)c2ccc(OC)c(S(=O)(=O)N3CCOCC3)c2)NC(=O)NC1C` (centres undefined) was 53.2%. With `Cc1ccc(NC(=O)Nc2ccno2)cc1`, the growth inhibition was 6.39%.

As for `COc1ccc(NC(=O)C(C)N=C2NS(=O)(=O)c3ccccc32)cc1S(N)(=O)=O` (centres undefined), the growth inhibition worked out at 67.3%. `CCOc1cc(C=NNc2cc(C)nc(-n3nc(C)cc3C)n2)ccc1O`: the growth inhibition worked out at 16.8%. Regarding `CSc1nc(-c2ccc(C)cc2)nc(C(Cl)Cl)n1`, the growth inhibition is 41.5%. Consider `CCCCN(C(=O)c1ccco1)c1c(N)n(CCC)c(=O)[nH]c1=O`, for which the growth inhibition was determined as 72%. On to `CCOc1ccc2oc(C(=O)OCC(=O)NCc3ccc(OC)cc3)c(C)c2c1`, for which the growth inhibition was found to be 68.7%. Regarding `CC=CC=CC(=O)Nc1cccc(C2=NOC3(C2)CC(C(N)=O)N(C(=O)c2cc([N+](=O)[O-])cc([N+](=O)[O-])c2)C3)c1` (centres undefined), the growth inhibition came out at 29%. Next, `CCOc1ncccc1C(=O)Nc1cc2c(cc1Br)OCCO2`: 63.1%; `CCCCn1c(N)c(N(CCOC)C(=O)c2oc3ccc(Br)cc3c2C)c(=O)[nH]c1=O`: 51.1%.

With `CCOc1ccccc1OCCCC(=O)Nc1cccc(S(=O)(=O)N2CCOCC2)c1`, the growth inhibition was 56%. As to `CCN(CC)c1ccc(C(=C2C=CC(=[N+](CC)CC)C=C2)c2ccc(N(CC)CC)cc2)cc1`, the growth inhibition is -31.9%.

In the case of `COc1ccc(-n2nc(C(=O)NCC(=O)NC3CCCC(C)C3C)c3ccccc3c2=O)c(OC)c1` (centres undefined), the growth inhibition was -16.5%. Take `O=C(Nc1ccno1)Nc1ccc(Cl)cc1Cl`: the growth inhibition was 10.7%. Regarding `COc1cc2ccccc2cc1C(=O)NN=Cc1cccnc1`, the growth inhibition came out at 31.2%. `O=C(Oc1ccc(OC(=O)c2ccncc2)cc1)c1ccncc1`: the growth inhibition is -13.7%. Turning to `Clc1cccc(Cl)c1Cn1nnc(N2CCCC2)n1`, the growth inhibition was determined as 21.4%. `O=C1NC(=O)N(c2ccc3c(c2)OCO3)C(=O)C1=Cc1ccc(N2CCCC2)o1`: the growth inhibition is 4.72%.

Take `O=C(CCl)N(c1ccc(Cl)cc1)c1c[nH]c2ccccc12`: the growth inhibition worked out at 23.6%.

On to `O=C(CSc1nc2ccccc2nc1N1CCOCC1)N1CCN(c2ccccc2)CC1`, for which the growth inhibition is 51.6%. Regarding `O=[N+]([O-])c1cc(-c2ccc(C=Nn3cnnc3)o2)cc([N+](=O)[O-])c1`, the growth inhibition was 28.1%. Take `CC(C)CCOC(=O)C[N+](C)(C)CCOC1CC2CCC1(C)C2(C)C` (centres undefined): the growth inhibition is 24.1%.
